The campaign covered roughly 39,000 compounds. About 220 (0.56%) showed activity. Some of the results follow.
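Also: static incubation at 37 °C against the wild-type strain, values averaged over two biological replicates.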

This experiment concerns Escherichia coli K-12 BW25113. Briefly: relative growth (OD600 normalised to plate interquartile mean) (fraction); higher = less growth inhibition, active = 0.2 or less. As to conditions: 50 µM; LB; incubation time: overnight (16-24 h).
In the case of `Cc1noc(C)c1NC(=O)N(C)C[C@H]1Oc2c(NC(=O)Nc3ccc(C(F)(F)F)cc3)cccc2C(=O)N([C@@H](C)CO)C[C@H]1C`, the relative growth is inactive: 0.984.
With `Cc1noc(C)c1NC(=O)Nc1ccc2c(c1)CC(=O)N([C@H](C)CO)C[C@@H](C)[C@H](CN(C)Cc1ccc(C(F)(F)F)cc1)O2` the figure was inactive: 0.98; with `CC(C)NC(=O)N(C)C[C@H]1OCCCC[C@H](C)Oc2ccc(NC(=O)C3CCCCC3)cc2C(=O)N([C@H](C)CO)C[C@@H]1C`, inactive: 0.999; with `C[C@@H]1CN([C@@H](C)CO)C(=O)c2cc(NC(=O)c3ccncc3)ccc2O[C@@H](C)CCCCO[C@@H]1CN(C)Cc1ccccc1`, inactive: 1.
Then `C[C@@H]1CCCCO[C@@H](CN(C)CC2CCCCC2)[C@H](C)CN([C@@H](C)CO)C(=O)c2cc(NC(=O)CCC(F)(F)F)ccc2O1`, with inactive: 0.982; and `CC(=O)C1CCC2C3CC=C4CC(OC(=O)CCC(=O)O)CCC4(C)C3CCC12C` (centres undefined), with inactive: 1.14; and `CCc1c(C)[nH]c(N2CCOCC2)nc1=O`, with inactive: 0.986.
In the case of `COc1ccc(S(=O)(=O)N(C)C[C@H]2Oc3ccc(NC(=O)CCN4CCOCC4)cc3CC(=O)N([C@H](C)CO)C[C@@H]2C)cc1`, the relative growth was inactive: 1.02.
In the case of `O=C(O)C(O)C(O)C(=O)O.OCc1cccnc1` (centres undefined), the relative growth was inactive: 1.06.
Regarding `COc1ccc(NC(=O)N(C)C[C@@H]2OCCCC[C@H](C)Oc3ccc(NC(=O)Nc4ccccc4)cc3C(=O)N([C@H](C)CO)C[C@@H]2C)cc1`, the relative growth was inactive: 1.06.
Take `C[C@@H]1CN([C@@H](C)CO)C(=O)c2cccc(NC(=O)C3CCCCC3)c2O[C@H]1CN(C)C(=O)Nc1ccc(C(F)(F)F)cc1`: the relative growth was inactive: 0.91.
Turning to `C[C@H](CO)N1C[C@H](C)[C@@H](CN(C)Cc2ccc(Cl)c(Cl)c2)OCCCC[C@H](C)Oc2ccc(NC(=O)NC3CCCCC3)cc2C1=O`, the relative growth was inactive: 1.01.
With `CCNC(=O)c1cc2c(c(-c3cccc(-c4cccc(F)c4)c3)n1)[C@@H](CCO)N([S@](=O)C(C)(C)C)C2` the figure was inactive: 1; with `C=C1O[C@@](CO)(n2cnc3c(N)ncnc32)[C@H](O)[C@@H]1O`, inactive: 1.01.
Turning to `CCCC(=O)Nc1ccc2c(c1)C(=O)N(C)[C@@H]1CC[C@@H](CC(=O)NCCN3CCCCC3)O[C@@H]1CO2`, the relative growth is inactive: 1.
For the compound `CC(C)NC(=O)N(C)C[C@H]1Oc2ccc(NC(=O)Cn3cnnn3)cc2CC(=O)N([C@H](C)CO)C[C@@H]1C`, the relative growth was inactive: 1.04.
As to `C[C@@H]1CCCCO[C@H](CN(C)Cc2ccc3c(c2)OCO3)[C@@H](C)CN([C@@H](C)CO)C(=O)c2cc(NS(=O)(=O)c3ccccc3)ccc2O1`, the relative growth was inactive: 0.953.
As to `C[C@@H]1CCCCO[C@H](CN(C)C(=O)c2ccccc2)[C@@H](C)CN([C@H](C)CO)C(=O)c2cc(NC(=O)Nc3ccc(C(F)(F)F)cc3)ccc2O1`, the relative growth was inactive: 1.06.
With `C[C@H](CCC(=O)NCC(=O)NCCS(=O)(=O)O)[C@H]1CC[C@H]2[C@@H]3[C@H](O)C[C@@H]4C[C@H](O)CC[C@]4(C)[C@H]3C[C@H](O)[C@]12C` the figure was inactive: 1; with `C[C@@H]1CCCCO[C@@H](CN(C)C(=O)Cc2ccccc2)[C@@H](C)CN([C@@H](C)CO)C(=O)c2cc(NC(=O)Nc3ccc4c(c3)OCO4)ccc2O1`, inactive: 1.01.
Regarding `Cc1cc(NC(=O)C(=O)NC[C@H]2CCCO2)n(-c2nc(=O)cc(C)[nH]2)n1`, the relative growth is inactive: 1.01.
With `C[C@@H]1CN([C@@H](C)CO)S(=O)(=O)c2ccc(C#CC3(O)CCCC3)cc2O[C@H]1CN(C)C(=O)Cc1ccccc1` the figure was inactive: 1; with `C[C@@H]1CN([C@H](C)CO)C(=O)c2cc(NC(=O)CCN3CCOCC3)ccc2O[C@@H]1CN(C)C(=O)Nc1ccc(F)cc1`, inactive: 0.974; with `C[C@H](CO)N1C[C@H](C)[C@H](CN(C)C(=O)NC2CCCCC2)OCCCC[C@H](C)Oc2ccc(NC(=O)NC3CCCCC3)cc2C1=O`, inactive: 1.01.
Take `C[C@H]1CN([C@@H](C)CO)C(=O)Cc2cc(NC(=O)Nc3cccc4ccccc34)ccc2O[C@H]1CN(C)S(=O)(=O)c1ccc(F)cc1`: the relative growth is inactive: 0.989.
With `OC[C@H]1O[C@H](O)[C@H](O)[C@@H](O)[C@@H]1O`, the relative growth is inactive: 1.01.
With `COc1ccc(S(=O)(=O)Nc2ccc3c(c2)C(=O)N([C@H](C)CO)C[C@H](C)[C@@H](CN(C)C(=O)Nc2c(C)noc2C)O3)cc1` the figure was inactive: 0.99.
For `COc1ccc([Si](C)(C)[C@H]2[C@H](CCO)O[C@@]3(C(=O)N(Cc4ccccc4)c4ccc(N5C(=O)c6ccccc6Oc6ccccc65)cc43)[C@@H]2C)cc1`, the relative growth is inactive: 1.06.
As for `O=C(CN1CCOCC1)N[C@H]1CC[C@@H](CCNS(=O)(=O)c2ccccc2F)O[C@@H]1CO`, the relative growth is inactive: 1.03.
Turning to `C[C@H]1CCCCO[C@@H](CN(C)Cc2ccc3c(c2)OCO3)[C@@H](C)CN([C@@H](C)CO)C(=O)c2cc(NS(=O)(=O)c3ccc(F)cc3)ccc2O1`, the relative growth is inactive: 1.03.
In the case of `C[C@@H]1CN([C@H](C)CO)C(=O)c2cc(NS(=O)(=O)c3cn(C)cn3)ccc2O[C@@H]1CN(C)S(=O)(=O)c1ccccc1`, the relative growth is inactive: 0.994.
As for `O=S(=O)(O)NC1CCCCC1`, the relative growth is inactive: 1.07.
With `C[C@@H]1CN([C@@H](C)CO)C(=O)Cc2cc(NC(=O)CCCCCC(=O)Nc3ccccc3N)ccc2O[C@H]1CN(C)Cc1ccc(-c2ccccc2)cc1` the figure was inactive: 0.977; with `C[C@@H]1CCCCO[C@H](CN(C)Cc2ccc(C(F)(F)F)cc2)[C@@H](C)CN([C@H](C)CO)C(=O)c2cc(NC(=O)Nc3ccccc3)ccc2O1`, inactive: 0.997; with `C[C@@H]1CCCCO[C@H](CN(C)Cc2ccncc2)[C@H](C)CN([C@H](C)CO)C(=O)c2cc(NC(=O)Nc3ccc(C(F)(F)F)cc3)ccc2O1`, inactive: 1.04.
Take `CO[C@@H]1CN(C)C(=O)c2cc(NC(=O)Nc3ccccc3F)ccc2OC[C@H](C)N(Cc2ccccc2C(=O)O)C[C@@H]1C`: the relative growth is inactive: 0.994.
`C[C@H]1CN([C@@H](C)CO)C(=O)Cc2cc(NC(=O)Nc3ccc(C(F)(F)F)cc3)ccc2O[C@H]1CN(C)C(=O)Nc1ccc2c(c1)OCO2`: the relative growth is inactive: 1.03.
For `C[C@H]1CN([C@@H](C)CO)C(=O)c2cc(NS(=O)(=O)c3ccccc3)ccc2O[C@H]1CN(C)Cc1ccncc1`, the relative growth is inactive: 1.
For `O=C(C[C@H]1C[C@@H]2c3cc(NC(=O)C4CCOCC4)ccc3O[C@@H]2[C@@H](CO)O1)NCc1ccc(Cl)cc1`, the relative growth was inactive: 0.994.
As to `N[C@H]1CCCN(Cc2cccs2)C1`, the relative growth was inactive: 1.
In the case of `C[C@H]1CCCCO[C@H](CN(C)S(=O)(=O)c2cccs2)[C@@H](C)CN([C@@H](C)CO)C(=O)c2cc(NC(=O)Nc3ccccc3)ccc2O1`, the relative growth is inactive: 1.05.
As for `C[C@H](CO)N1C[C@H](C)[C@H](CN(C)C(=O)Cc2cccnc2)Oc2cc(C#Cc3ccccc3F)ccc2S1(=O)=O`, the relative growth was inactive: 0.995.
As to `COCC(=O)Nc1ccc2c(c1)C(=O)N(C)C[C@H](OC)[C@H](C)CN(Cc1ccccc1OC)[C@@H](C)CO2`, the relative growth was inactive: 1.02.
Regarding `C[C@@H]1CN([C@H](C)CO)C(=O)c2cc(NC(=O)CCC(F)(F)F)ccc2O[C@@H](C)CCCCO[C@H]1CN(C)Cc1ccc(C(=O)O)cc1`, the relative growth is inactive: 1.02.
Turning to `C[C@@H]1CN([C@H](C)CO)C(=O)c2cccc(NC(=O)c3ccc(-c4nccs4)cc3)c2O[C@@H]1CN(C)C(=O)Nc1ccc(F)cc1`, the relative growth was inactive: 1.01.
On to `Cc1noc(C)c1NC(=O)Nc1ccc2c(c1)C(=O)N([C@@H](C)CO)C[C@@H](C)[C@@H](CN(C)CC1CCCCC1)OCCCC[C@H](C)O2`, for which the relative growth is inactive: 0.999.
On to `C[C@@H]1CN([C@@H](C)CO)C(=O)c2cccc(NC(=O)Nc3ccc(C(F)(F)F)cc3)c2O[C@H]1CN(C)Cc1ccc(-c2ccccc2)cc1`, for which the relative growth is inactive: 1.01.
Then `C[C@@H]1CN([C@H](C)CO)C(=O)c2cc(NC(=O)Nc3ccc(F)cc3)ccc2O[C@@H](C)CCCCO[C@@H]1CN(C)Cc1ccccc1`, with inactive: 0.994; and `C[C@H](CO)N1C[C@H](C)[C@@H](CN(C)Cc2ccc(Cl)c(Cl)c2)OCCCC[C@H](C)Oc2ccc(NS(=O)(=O)c3ccc(Cl)cc3)cc2C1=O`, with inactive: 0.981.
Turning to `COc1ccc(NC(=O)N(C)C[C@@H]2Oc3ccc(NS(C)(=O)=O)cc3C(=O)N([C@@H](C)CO)C[C@@H]2C)cc1`, the relative growth was inactive: 0.989.
In the case of `COCCc1nc2c(c(=O)n(C)c(=O)n2C)n1C`, the relative growth was inactive: 1.01.
Then `O=C(CCCCCCC(=O)N/N=C/[C@@H](O)[C@H](O)[C@H](O)CO)NO`, with inactive: 1.01; and `Cc1cc(C)c(S(=O)(=O)N2CCO[C@@H]2CNC(=O)C(=O)NCCCN2CCCC2=O)c(C)c1`, with inactive: 1.01.
With `C[C@@H]1CN([C@H](C)CO)C(=O)c2cc(NC(=O)Cc3ccccc3)ccc2O[C@@H](C)CCCCO[C@@H]1CN(C)S(=O)(=O)c1cccs1` the figure was inactive: 1.03; with `C[C@H]1CN([C@@H](C)CO)S(=O)(=O)c2ccc(C#CCN(C)C)cc2O[C@H]1CN(C)Cc1ccc(F)cc1`, inactive: 1.02; with `O=C(CN1CCOCC1)N[C@H]1CC[C@@H](CCNC(=O)C2CCCCC2)O[C@@H]1CO`, inactive: 0.999.
In the case of `Cc1ccc(S(=O)(=O)N2C[C@@H](O)COC[C@H]3O[C@H](CC(=O)NCCN4CCCCC4)CC[C@@H]32)cc1`, the relative growth is inactive: 0.964.
Turning to `Cn1c(=O)c2[nH]cnc2n(C)c1=O.NCCN`, the relative growth is inactive: 1.01.
For the compound `C[C@H](CO)N1C[C@H](C)[C@H](CN(C)C(=O)c2ccccc2)OCCCC[C@H](C)Oc2ccc(NC(=O)Nc3cccc4ccccc34)cc2C1=O`, the relative growth is inactive: 1.04.

The record behind these values is the supplement of paper PMC9446081.
